{"source": "PubChem BioAssay AID493208", "about": "(National Center for Advancing Translational Sciences (NCATS), 2011)", "note": "Screen size: about 44,000 compounds; about 340 (0.77%) were called active. The inconclusive results got no clear call from the source; some entries with a clear call stand among them for comparison. The call rests on the fitted dose curve; in most records, active means well fitted inhibition curve with a large enough effect; inconclusive means small, poorly fitted or top-dose-only effect; inactive means flat fitted curve, though single readings scatter. No potency is given beside an inconclusive call; the fits are too rough. Potency means the concentration at half of the fitted maximal effect; tags describe the fitted curve by direction and shape."}
{"test": "Acumen qHTS Assay for Inhibitors of the mTORC1 Signaling Pathway in MEF (Tsc2-/-, p53-/-) Cells: Sytravon; further: nearly all actives have a fitted effect of over 50% in size", "conditions": "phospho-rpS6 immunofluorescence/PI, 24 h; series mostly up to 38.3 µM", "how_it_was_run": "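Tsc2-/-, p53-/- mouse embryonic fibroblasts (empty-vector line) exposed to compound 24 hrs at 37 C, fixed, immunostained for phospho-rpS6 and counterstained with propidium iodide. Acumen laser scanning gives % positive cells from Alexa 488/PI ratio, thresholded using 7.5 nM rapamycin; PI count gives viability.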"}
{"molecule": "O=C(CCCCn1c(=O)[nH]c2ccsc2c1=O)N1CCN(c2cccc(Cl)c2)CC1", "Potency": "inconclusive [falling, partial curve, poor fit]"}
{"molecule": "CCOC(=O)c1c(C)oc2c(Cl)cc(NS(=O)(=O)c3ccc(Cl)c(C)c3)cc12", "Potency": "inactive"}
{"molecule": "CSc1nc2c([nH]c3ccccc32)c(=O)n1-c1ccc(F)cc1", "Potency": "inconclusive [falling, partial curve, poor fit]"}
{"molecule": "COc1cc(C(=O)Nc2ccc(OCc3cc(=O)n4cc(C)sc4n3)cc2)cc(OC)c1OC", "Potency": "inactive"}
{"molecule": "COc1ccc(-c2noc(N3CCC(C(=O)Nc4ccc(C)c(F)c4)CC3)n2)cc1OC", "Potency": "inconclusive [falling, single point]"}
{"molecule": "CCOc1cccc2cc(-c3nc4sc5c(c4c(=O)[nH]3)CCC(C)C5)c(=O)oc12", "note": "(configuration not stated)", "Potency": "inactive"}
{"molecule": "Cc1ccc2nc(N(CCCN(C)C)C(=O)c3ccc(Br)s3)sc2c1", "Potency": "inconclusive [falling, single point]"}
{"molecule": "CC1CCc2nc3ncn(CC(=O)Nc4cccc(C#N)c4)c(=O)c3cc2C1", "note": "(configuration not stated)", "Potency": "inconclusive [falling, single point]"}
{"molecule": "CC(C)OCCCN1C(=O)c2[nH]nc(-c3ccccc3O)c2C1c1ccc(OCc2ccccc2)cc1", "note": "(configuration not stated)", "Potency": "inconclusive [falling, single point]"}
{"molecule": "CCCCN(CC)CCCNC(=O)Cn1ncc2c3ccccc3n(Cc3ccccc3F)c2c1=O", "Potency": "inconclusive [falling, single point]"}
{"molecule": "COc1cccc(N2CCN(c3ncnc4c3c(-c3ccccc3)cn4-c3ccc(C)cc3)CC2)c1", "Potency": "inconclusive [falling, partial curve, poor fit]"}
{"molecule": "COCCNC(=O)c1c(-c2ccccc2)c(-c2ccccc2)nn(C)c1=O", "Potency": "inactive"}
{"molecule": "CCC(Sc1nnc(C)n2c1cc1sccc12)C(=O)Nc1ccccc1F", "note": "(configuration not stated)", "Potency": "inconclusive [falling, single point]"}
{"molecule": "Cc1ccc(NC(=O)CSc2nc3ccc(NC(=O)c4cccs4)cc3s2)cc1", "Potency": "inconclusive [falling, partial curve, poor fit]"}
{"molecule": "CC(C)c1ccc(NC(=O)CN2C(=O)COc3ccc(S(=O)(=O)N4CCCCC4)cc32)cc1", "Potency": "inconclusive [falling, single point]"}
{"molecule": "COc1ccc(-c2cc(C(F)(F)F)nc(S(C)(=O)=O)n2)cc1", "Potency": "active: 14.7 µM"}
{"molecule": "CCOC(=O)c1sc2ccccc2c1S(=O)(=O)Nc1ccc(CC)cc1", "Potency": "inconclusive [falling, partial curve, poor fit]"}
